Source: PubChem BioAssay AID1347165 (National Center for Advancing Translational Sciences (NCATS), 2019)
In all, about 220,000 compounds went through this assay and about 5,700 (2.6%) were called active. This list was built around the results that the source calls inconclusive (neither active nor inactive); the mix of calls is not that of the screen. Calls come from the whole dose curve; as a rule, active = well fitted inhibition curve with a large enough effect; inconclusive = small, poorly fitted or top-dose-only effect; inactive = no such curve, though single readings can be large or run the other way. Where the call is inconclusive, the potency comes from a doubtful curve fit.

molecular target: Lysine-specific demethylase 5B (Homo sapiens) (UniProt Q9UGL1); assay: Primary screen for KDM5B Histone Demethylases FDH-coupled qHTS; settings: FDH-coupled NADH fluorescence (FDH is formaldehyde dehydrogenase); activity change, negative = inhibition: at 57.7 µM (top of the series) unless noted; note: nearly all actives have a fitted effect of over 70% in size; for activity change, negative = inhibition: 0% is about no effect
In short: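 KDM5BΔAP (200 nM final) in 50 mM HEPES pH 7.5, 0.01% Tween-20 was preincubated 10 min at RT with compound over a concentration range. Substrate mix (H3K4me3 12.5 µM, α-KG 25 µM, Fe²⁺, ascorbate, NAD⁺, FDH) was added, and NADH fluorescence change over 30 min gave dose-response curves.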
Potency is the fitted concentration of half-maximal effect; tags give direction and shape of the fitted curve.

Sequence of UniProt Q9UGL1 (Q9UGL1 whole entry, looked up): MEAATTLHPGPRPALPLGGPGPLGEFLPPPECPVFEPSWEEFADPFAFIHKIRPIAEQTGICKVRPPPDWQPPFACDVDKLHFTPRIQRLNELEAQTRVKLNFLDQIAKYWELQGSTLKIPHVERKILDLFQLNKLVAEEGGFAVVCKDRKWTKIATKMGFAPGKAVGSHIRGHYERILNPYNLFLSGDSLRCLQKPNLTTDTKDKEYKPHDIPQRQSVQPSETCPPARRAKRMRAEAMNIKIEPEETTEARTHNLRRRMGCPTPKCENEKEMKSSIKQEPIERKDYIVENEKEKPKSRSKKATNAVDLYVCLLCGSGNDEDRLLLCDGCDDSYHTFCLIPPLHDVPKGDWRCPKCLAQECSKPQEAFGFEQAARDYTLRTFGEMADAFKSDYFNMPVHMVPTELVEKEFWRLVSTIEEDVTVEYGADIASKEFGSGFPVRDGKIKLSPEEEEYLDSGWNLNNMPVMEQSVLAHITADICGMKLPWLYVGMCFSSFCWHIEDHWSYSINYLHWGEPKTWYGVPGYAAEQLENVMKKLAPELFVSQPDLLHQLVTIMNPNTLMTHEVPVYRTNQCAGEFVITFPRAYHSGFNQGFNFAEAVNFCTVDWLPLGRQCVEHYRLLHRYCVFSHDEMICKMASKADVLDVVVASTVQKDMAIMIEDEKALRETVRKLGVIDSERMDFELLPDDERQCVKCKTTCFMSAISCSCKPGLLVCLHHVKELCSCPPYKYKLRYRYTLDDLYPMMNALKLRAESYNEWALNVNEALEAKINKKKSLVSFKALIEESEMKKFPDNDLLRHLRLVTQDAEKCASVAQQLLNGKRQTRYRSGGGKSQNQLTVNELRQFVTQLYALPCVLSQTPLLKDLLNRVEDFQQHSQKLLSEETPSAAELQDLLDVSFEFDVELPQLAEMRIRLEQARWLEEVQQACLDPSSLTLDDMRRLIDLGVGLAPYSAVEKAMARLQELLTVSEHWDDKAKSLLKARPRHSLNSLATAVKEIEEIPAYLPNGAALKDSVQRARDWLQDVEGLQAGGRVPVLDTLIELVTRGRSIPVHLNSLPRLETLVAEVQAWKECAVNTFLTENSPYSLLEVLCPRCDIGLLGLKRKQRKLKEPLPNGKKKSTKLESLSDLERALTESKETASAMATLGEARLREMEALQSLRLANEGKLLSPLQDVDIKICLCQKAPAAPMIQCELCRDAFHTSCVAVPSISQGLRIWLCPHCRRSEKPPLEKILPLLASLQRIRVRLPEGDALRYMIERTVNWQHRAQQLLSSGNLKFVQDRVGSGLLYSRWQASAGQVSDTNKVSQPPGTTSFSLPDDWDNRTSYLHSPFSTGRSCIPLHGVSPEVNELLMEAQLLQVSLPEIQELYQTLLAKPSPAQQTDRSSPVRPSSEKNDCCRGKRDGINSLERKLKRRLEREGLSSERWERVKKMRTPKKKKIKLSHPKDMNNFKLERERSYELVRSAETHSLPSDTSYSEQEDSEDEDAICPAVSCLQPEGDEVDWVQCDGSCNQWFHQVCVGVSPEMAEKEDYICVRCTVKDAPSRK

Row | Structure (SMILES) | Potency | activity change, negative = inhibition
1 | Cc1nn(-c2ccc(C(F)(F)F)cc2)c(C)c1[C@@H]1C=C[C@@H](NC(=O)NC(C)C)C1 | inconclusive: 17.8 µM [inhibitor, partial curve, poor fit] | 
2 | CC(=O)N(CCC1(Cc2ccccc2)CCCC1)C1CCOC(C)(C)C1 (stereo not drawn) |  | inactive: 2.89%
3 | NC(=O)C1CCN(C(=O)/C=C/c2ccc(C(F)(F)F)cc2)CC1 |  | inactive: 16.9%
4 | Cc1cc2ccccc2n1CC(=O)NC1CCN(C(C)(C)C)CC1 |  | inactive: -6.79%
5 | CCOc1ccccc1NS(=O)(=O)c1ccc2[nH]c3c(c2c1)CCCCC3 | inconclusive: 14.1 µM [inhibitor, single point] | 
6 | COc1ccc(S(=O)(=O)N(CC(=O)Nc2cc(C)ccc2OC)Cc2ccccc2)cc1 | inconclusive: 15.8 µM [inhibitor, partial curve, poor fit] | 
7 | COc1ccc(/C(C)=N/Nc2nc3ccccc3n3cnnc23)cc1OC | inconclusive: 39.8 µM [inhibitor, single point] | 
8 | Cc1ccc(Cn2c(=O)n(-c3ccc(C)cc3)c(=O)c3c2c2cc(C)ccc2n3C)cc1 | inconclusive: 5.01 µM [inhibitor, partial curve, poor fit] | 
9 | O=C(O)CCc1ncc(-c2c(F)cccc2F)o1 |  | inactive: 20.6%
10 | CCCCCCCCCCCCS(=O)(=O)CC(Cl)CO (stereo not drawn) |  | inactive: 11.8%
11 | Cc1cccc(C)c1CN1CC2(COCC1=O)CN(c1ccc(C(F)(F)F)cn1)C2 | inconclusive: 35.5 µM [inhibitor, single point] | 
12 | Cc1cccnc1CN(C)c1ccc(C(=O)NCc2noc(C(C)C)n2)cn1 | inconclusive: 35.5 µM [inhibitor, partial curve, poor fit] | 
13 | Cc1ccc(OCCC2CCN(C(=O)Cc3cccnc3)C2)cc1 (stereo not drawn) |  | inactive: 27.4%
14 | O=C(NCC1CCCCC1)c1cccnc1N1CC2CC(C1)[C@H]1CCCC(=O)N1C2 (stereo partly drawn) | inconclusive: 31.6 µM [inhibitor, single point] | 
15 | C[C@]1(CO)[C@H]2Cc3sc(NC(=O)c4ccnc(Cl)c4)nc3[C@@H](CC(=O)O)[C@]2(C)CC[C@H]1O |  | inactive: 5.26%
16 | COc1cc(/C=C2\C(=O)ON=C2c2ccccc2)cc(Br)c1O | inconclusive: 1.78 µM [inhibitor, full curve, poor fit] | 
17 | CC(C)NC(=O)N[C@H]1C[C@H]2C(=O)NC[C@@H](CCC(=O)N3CCCCC3)N2C1 | inconclusive: 39.8 µM [inhibitor, single point] | 
18 | CC(C)CC[n+]1ccn(-c2nc3ccccc3nc2[N-]S(=O)(=O)c2ccc(Cl)cc2)c1 | inconclusive: 28.2 µM [inhibitor, partial curve, poor fit] | 
19 | FC(F)(F)c1ccc(-c2ncc[nH]2)cc1 | inconclusive: 141 µM [inhibitor, partial curve, poor fit] | 
20 | COc1ccc(CN2CCC(C)CC2)cc1 | inconclusive: 39.8 µM [inhibitor, single point] | 
21 | CCCNC(=O)c1ccccc1NC(=O)c1nsc2ccccc12 | inconclusive: 2.24 µM [inhibitor, full curve, poor fit] | 

Row | Structure (SMILES) | Potency | activity change, negative = inhibition
22 | O=C(NC1CCCCC1)c1ccccc1NC(=O)C1CCN(S(=O)(=O)Cc2ccccc2)CC1 | inconclusive: 39.8 µM [inhibitor, single point] | 
23 | Cc1noc(C)c1CC(=O)N1Cc2ccccc2OC2(CCN(C(=O)NC(C)C)CC2)C1 |  | inactive: -5.73% [at 115 µM]
24 | CCOc1cc(/C=C2/C(=N)N3N=C(C)SC3=NC2=O)ccc1OS(=O)(=O)c1ccc(C)cc1 | inconclusive: 28.2 µM [inhibitor, single point] | 
25 | Cc1c(Cl)cccc1NC(=O)N1CCOc2ccccc21 | inconclusive: 39.8 µM [inhibitor, single point] | 
26 | Fc1ccc2nc(CO[C@H]3CN(C4CCOCC4)C[C@H]3F)[nH]c2c1 | inconclusive: 35.5 µM [inhibitor, single point] | 
27 | COc1ccc(C(C(=O)NC2CCCC2)N(Cc2ccco2)C(=O)c2snc(C(N)=O)c2N)cc1OC (stereo not drawn) | inconclusive: 12.6 µM [inhibitor, partial curve, poor fit] | 
28 | C[C@H]1[C@@H]2[C@@H](O)C([C@H](C)C(=O)NCCN3CCOCC3)CC[C@@]2(C)CC[C@@H]1NC(=O)c1ccccn1 (stereo partly drawn) |  | inactive: -19.8%
29 | Cc1ccc(Cl)cc1N1CCN(C(=O)Cn2c(-c3cccs3)cc3cc(F)ccc32)CC1 | inconclusive: 3.55 µM [inhibitor, full curve, poor fit] | 
30 | COc1ccc(C(=O)/C(=C\c2ccc(C)o2)c2nc3ccccc3o2)cc1 | inconclusive: 39.8 µM [inhibitor, single point] | 
31 | O=C(NC1CCCCC1)c1cc(C2CC2)on1 |  | inactive: 20.7%
32 | O=C(Nc1ccccc1Br)c1cc2ccc(O)cc2oc1=O |  | inactive: -253%
33 | CCOC(=O)Cn1c(=O)cc(C(F)(F)C(F)(F)F)c2c(C)nn(CC)c21 | inconclusive: 20 µM [inhibitor, partial curve, poor fit] | 
34 | Cc1cn2nc(C(=O)Nc3ccc(C(=O)N4CCCC4)cc3)cc2c(=O)[nH]1 | inconclusive: 31.6 µM [inhibitor, single point] | 
35 | N#C/C(=C\C=C\c1ccccc1)c1nc2ccccc2[nH]1 | inconclusive: 35.5 µM [inhibitor, partial curve, poor fit] | 
36 | COc1ccc(CNC(=O)CSc2ncc3c(n2)-c2cc(Cl)ccc2N(Cc2ccccc2)S3(=O)=O)cc1 |  | inactive: 2.38%
37 | CCn1c(COc2ccc(Cl)cc2)n[nH]c1=S |  | inactive: 5.93%
38 | CNCCN1C(=O)CC[C@H]2CN(C(=O)c3cnc4c(c3)CCCC4)CC[C@H]21 | inconclusive: 8.91 µM [inhibitor, partial curve, poor fit] | 
39 | CN1CC(=O)N(CCCC(=O)Nc2cnc3ccccc3c2)C1=O | inconclusive: 28.2 µM [inhibitor, single point] | 
40 | COc1cccc(-n2c(-c3ccccc3F)nc3c(cnn3-c3ccc(C)cc3)c2=O)c1 | inconclusive: 31.6 µM [inhibitor, partial curve, poor fit] | 
41 | COc1ccc(NC(=O)c2sc3nc4c(cc3c2N)CCCCCC4)cc1 | inconclusive: 35.5 µM [inhibitor, partial curve, poor fit] | 
42 | CCOC(=O)C(Cc1ccccc1)NC(=O)CCc1c(C)nc2nc(C)nn2c1C (stereo not drawn) |  | inconclusive: -38.6% [inhibitor]

Row | Structure (SMILES) | Potency | activity change, negative = inhibition
43 | COc1ccc(CCNC(=O)C23CC4CC(CC(C4)C2)C3)cc1 |  | inactive: 9.28%
44 | COc1ccc(NC(=O)Nc2nc3cc(C)c(C)cc3s2)cc1OC |  | inactive: -16.7%
45 | COc1ccc(CNC(=O)CCC2N=C3c4ccccc4N=C(SCc4ccccc4F)N3C2=O)cc1 (stereo not drawn) | inconclusive: 2.51 µM [inhibitor, full curve, poor fit] | 
46 | COc1ccc(F)cc1CN1CCN(c2ncnc3scc(-c4ccccc4)c23)CC1 | inconclusive: 39.8 µM [inhibitor, partial curve, poor fit] | 
47 | Cc1nc(-c2cc3ccc(OCC(=O)NCC(C)C)cc3oc2=O)cs1 |  | inactive: 1470%
48 | CC1=C/C(=N\NC(=S)Nc2cccc(C(F)(F)F)c2)CC1 | inconclusive: 39.8 µM [inhibitor, single point] | 
49 | CCN1c2cc(C(=O)N3CCSCC3)ccc2C(=O)N2CCCCCC21 (stereo not drawn) | inconclusive: 28.2 µM [inhibitor, partial curve, poor fit] | 
50 | CCc1noc(-c2ccn3c(CNC(=O)C4CCCC4)nnc3c2)n1 |  | inactive: -3830%
51 | CCOC(=O)CSC1=Nc2ccccc2C2=NC(CCC(=O)NCc3ccc(OC)cc3)C(=O)N12 (stereo not drawn) | inconclusive: 2.24 µM [inhibitor, partial curve, poor fit] | 
52 | COc1ccc2[nH]c(=O)c(CCC(=O)N3CCCC3)cc2c1 | inconclusive: 28.2 µM [inhibitor, partial curve, poor fit] | 
53 | Cc1ccccc1N1CCN(C(=O)c2ccc3c(c2)N(C)C2CCCCCN2C3=O)CC1 (stereo not drawn) | inconclusive: 22.4 µM [inhibitor, partial curve, poor fit] | 
54 | Oc1c(C(c2ccccc2F)N2CCN(c3ccccc3F)CC2)sc2nc(-c3ccco3)nn12 (stereo not drawn) | inconclusive: 15.8 µM [inhibitor, partial curve, poor fit] | 
55 | CC(C)CCN(C(=O)CN1c2ccccc2CC1C)c1c(N)n(Cc2ccccc2)c(=O)[nH]c1=O (stereo not drawn) |  | inactive: -10.3%
56 | COCCN(C)C[C@H]1C[C@H](CO)CN(C(=O)CN2CCc3ccccc3C2)C1 | inconclusive: 35.5 µM [inhibitor, partial curve, poor fit] | 
57 | COc1ccccc1CC(=O)NCc1nnc2c(-c3nc(C(C)C)no3)cccn12 | inconclusive: 28.2 µM [inhibitor, single point] | 
58 | COc1cc(C)cc2oc(=O)c(CC(=O)NCCc3ccccc3F)c(C)c12 | inconclusive: 22.4 µM [inhibitor, single point] | 
59 | COC(=O)c1sc(-c2ccccc2)cc1NC(=O)Nc1ccc(Cl)cc1 | inconclusive: 2.51 µM [inhibitor, partial curve, poor fit] | 
60 | O=C(Oc1ccc(F)cc1)c1nc(SCc2ccc(F)cc2)ncc1Cl | inconclusive: 31.6 µM [inhibitor, partial curve, poor fit] | 
61 | Cn1ccnc1CNCC1(COc2cccnc2)C[C@@H](O)[C@@H](O)C1 (stereo partly drawn) | inconclusive: 15.8 µM [inhibitor, single point] | 
62 | O=C1NCc2ccccc2CC12CCN(Cc1cc(O)cc(O)c1)CC2 | inconclusive: 50.1 µM [inhibitor, partial curve] | 
63 | COc1cc2nc(Nc3cccc(C)c3)nc(N)c2cc1OC | inconclusive: 25.1 µM [inhibitor, partial curve, poor fit] | 
